Structures are written as SMILES. About 14,000 (4.5%) of roughly 310,000 compounds showed an effect of 50% or more. The effect is printed as a negative number. The list shows a part of the results.

The values below come from paper PMC4336329 (PLoS ONE, 2015).
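Also: peak tail current of the secondary pulse compared with the same well before compound.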

For this assay, the target named is human ether-à-go-go-related gene (hERG) potassium channel (human, UniProt Q12809). Briefly: primary screen, population patch clamp on CHO cells stably expressing hERG.
Sequence of human ether-à-go-go-related gene (hERG) potassium channel (Q12809 whole entry, looked up): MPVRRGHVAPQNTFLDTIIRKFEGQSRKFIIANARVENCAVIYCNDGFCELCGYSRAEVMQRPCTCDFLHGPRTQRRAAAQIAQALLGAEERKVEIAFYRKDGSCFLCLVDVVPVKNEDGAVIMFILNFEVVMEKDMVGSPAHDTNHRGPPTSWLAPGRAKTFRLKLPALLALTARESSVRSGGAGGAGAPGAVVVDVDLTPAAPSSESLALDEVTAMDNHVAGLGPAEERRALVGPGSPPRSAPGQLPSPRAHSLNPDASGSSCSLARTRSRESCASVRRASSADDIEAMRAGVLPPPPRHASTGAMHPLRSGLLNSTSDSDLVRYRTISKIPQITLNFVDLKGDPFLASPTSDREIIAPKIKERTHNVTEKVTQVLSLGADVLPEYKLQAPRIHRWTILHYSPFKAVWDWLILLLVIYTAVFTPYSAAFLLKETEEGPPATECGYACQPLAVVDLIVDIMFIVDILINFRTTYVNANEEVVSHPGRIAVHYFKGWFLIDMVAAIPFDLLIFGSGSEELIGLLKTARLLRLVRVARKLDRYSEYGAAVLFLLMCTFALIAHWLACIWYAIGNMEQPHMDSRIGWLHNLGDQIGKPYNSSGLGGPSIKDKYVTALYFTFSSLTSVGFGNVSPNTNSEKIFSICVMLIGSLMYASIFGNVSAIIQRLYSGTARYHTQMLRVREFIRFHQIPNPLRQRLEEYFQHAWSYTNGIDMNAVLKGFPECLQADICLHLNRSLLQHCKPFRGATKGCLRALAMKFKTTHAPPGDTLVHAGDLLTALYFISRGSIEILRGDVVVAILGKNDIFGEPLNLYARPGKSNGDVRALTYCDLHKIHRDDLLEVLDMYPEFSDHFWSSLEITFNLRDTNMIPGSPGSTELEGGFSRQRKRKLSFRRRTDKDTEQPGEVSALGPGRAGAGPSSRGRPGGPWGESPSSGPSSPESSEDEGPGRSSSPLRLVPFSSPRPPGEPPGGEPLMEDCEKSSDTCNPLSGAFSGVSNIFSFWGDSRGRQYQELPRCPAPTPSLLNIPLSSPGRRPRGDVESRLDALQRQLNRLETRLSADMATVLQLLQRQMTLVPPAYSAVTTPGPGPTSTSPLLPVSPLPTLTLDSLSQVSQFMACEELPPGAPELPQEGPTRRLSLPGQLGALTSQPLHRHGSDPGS
Regarding `O=C(CC1SCCNC1=O)Nc1ccccc1Cl` (centres unmarked), the “hERG current change (%, negative = inhibition) at 10uM” value is 21.2%.
`N=C1C(c2nc3ccccc3s2)=C(O)CN1Cc1ccco1`: the “hERG current change (%, negative = inhibition) at 10uM” value is 1.81%.
Take `COc1ccc(/C=C/C(=O)c2c(O)cc(C)oc2=O)c(OC)c1`: the “hERG current change (%, negative = inhibition) at 10uM” value is listed as 0.141%.
The same measure for `Cc1nc(SCC(=O)NCc2ccc3c(c2)OCO3)c(C#N)c2c1CCCC2`: -11.5%.
As for `CC(=O)Nc1scc(-c2ccccc2)[n+]1-c1ccc(C)cc1.[Br-]`, the “hERG current change (%, negative = inhibition) at 10uM” value amounted to 1.06%.
The same measure for `Cc1ccc(S(=O)(=O)c2c(C)nn(C(C)(C)C)c2OC(=O)C(C)C)cc1`: 0.648%.
To `CCCCCCNC(=O)c1c(O)c2ccccc2[nH]c1=O` belongs 19.9%; to `COCCC(=O)N1CCC(Oc2ccc(C(=O)N(C)Cc3cc(C)no3)cc2)CC1`, -0.507%.
For the compound `O=C(N/N=C/c1ccccc1C(=O)O)c1ccc(COc2cccc3cccnc23)cc1`, the “hERG current change (%, negative = inhibition) at 10uM” value came to 4.17%.
The same measure for `NC(=O)c1ccc([N+](=O)[O-])cc1SCc1ccccc1`: -5.14%; for `COc1cc(C(=O)NCC2(c3ccccc3)CCCC2)cc(OC)c1OC`: -1.94%.
For `CCCCOc1ccc(C(C)NC(=O)CCS(=O)(=O)Cc2ccccc2F)cc1` (centres unmarked), the “hERG current change (%, negative = inhibition) at 10uM” value is reported as 6.59%.
The same measure for `Cc1ccc(-n2nc3c(=O)n(CC(=O)NCc4ccccn4)nc(C)c3c2C)cc1`: -20.6%.
`Cc1cc(C)cc(NC(=S)NCCN(C2CCCCC2)C2CCCC2)c1`: the “hERG current change (%, negative = inhibition) at 10uM” value is -69.6%.
To `CC(C)CN(C1CCS(=O)(=O)C1)S(=O)(=O)c1ccc(C(C)C)cc1` (centres unmarked) belongs -6.74%; to `O=C(c1cc(-c2ccc(Br)cc2)on1)N1CCCCCC1`, 8.66%; to `Cc1nc(-c2cccc(NC(=O)Cc3ccccc3)c2)cs1`, -9.89%.
Consider `S=C(NCCc1ccccc1)Nc1nccs1`, for which the “hERG current change (%, negative = inhibition) at 10uM” value is listed as 6.05%.
The same measure for `Nc1ccc(CC2SC(=O)NC2=O)cc1` (centres unmarked): 13.2%; for `COC(=O)C1=C(c2cccc(C#N)c2)C[C@@H]2CC[C@H]1N2C(=O)NCc1ccc(F)cc1`: -26.6%; for `CC[N+](CC)(CC)CCCCOc1ccc2c(c1)C(=O)c1cc(OCCCC[N+](CC)(CC)CC)ccc1-2.[I-]`: 23%.
To `COc1ccc(OC)c(NC(=O)c2ccc(NC3=NC4CS(=O)(=O)CC4S3)cc2)c1` (centres unmarked) belongs -5.04%; to `CCOC(=O)N1CCC(Nc2cc(C)nc3c(-c4ccccc4OC)c(C)nn23)CC1`, -19.2%; to `COCCNC(=S)N(CCCN(C)C)Cc1cc2cc3c(cc2[nH]c1=O)OCCO3`, 24.9%.
To `Cl.O=[N+]([O-])c1cccnc1N1CCN(Cc2ccc3c(c2)OCO3)CC1` belongs -33.2%; to `Cc1ccc(NC(=O)c2cc(NC(=O)c3ccco3)ccc2N2CCOCC2)cc1`, 7.7%.
On to `CC(=O)NCCOC(=O)Nc1sc(=S)n(C)c1C`, for which the “hERG current change (%, negative = inhibition) at 10uM” value came out at 5.72%.
For `COc1ccc(CNC(=O)C(=O)NCc2ccncc2)cc1`, the “hERG current change (%, negative = inhibition) at 10uM” value came to 10.9%.
In the case of `CCCc1[nH]nc2c1C(C1CCCCC1)C(C#N)=C(N)O2` (centres unmarked), the “hERG current change (%, negative = inhibition) at 10uM” value was found to be 3.03%.
The same measure for `O=C(CN1C(=O)NC2(CCCCCC2)C1=O)Nc1ccc(Br)cc1Br`: -21%; for `O=c1c2ccccc2nc(SCc2cccc(F)c2)n1Cc1ccco1`: 2.21%; for `OCC[C@H]1C[C@H](O)[C@@H](O)[C@]2(OCCc3ccccc32)O1`: 2.59%.
To `O=c1c(Cc2ccc(Cl)cc2)c(O)ccn1Cc1ccccc1` belongs 1.16%.
Regarding `CCC(O)C1CCN(Cc2cn(Cc3ccccc3)nc2-c2cc3ccccc3o2)CC1` (centres unmarked), the “hERG current change (%, negative = inhibition) at 10uM” value was -65.1%.
The same measure for `CC(C)Cc1ccc(CN2CCCC(NC(=O)c3cnc4ccccn4c3=O)C2)cc1` (centres unmarked): -71.8%; for `O=C(NC(CC(=O)N1CCN(c2ccc([N+](=O)[O-])cc2)CC1)c1ccccc1)c1ccccc1Cl` (centres unmarked): -85.3%; for `O=C(O)C1=C[C@@H](c2csc3ccccc23)C[C@@H](OCc2ccc(CO)cc2)O1`: -1.15%.
The same measure for `O=C(NNC(=O)C1CCN(c2ncccn2)CC1)c1ccc(F)cc1`: 14.7%.
On to `COc1ccc(C2C(C(=O)NCc3cccnc3)c3ccccc3C(=O)N2C)cc1OC` (centres unmarked), for which the “hERG current change (%, negative = inhibition) at 10uM” value was 9.28%.
As for `O=C(NC1CCCCC1)C(c1ccc(F)cc1)N(CCCN1CCOCC1)C(=O)c1ccc(CN2CCOCC2)o1` (centres unmarked), the “hERG current change (%, negative = inhibition) at 10uM” value is recorded as 10.6%.
To `O=C(O)c1ccc(S(=O)(=O)NCc2cccnc2)cc1` belongs 14%; to `c1ccc(-c2cc3c(N4CCCCC4)ncnc3s2)cc1`, 15.9%.
To `CCC(CO)Nc1nc(CN2CCCCC2)nc2scc(-c3ccccc3)c12` (centres unmarked) belongs -68.2%; to `COc1ccccc1CC(=O)NCCc1ccccc1`, 12.1%.
